The values that follow come from the supplement of paper PMC12355420.

Where a name gives a salt, the structure may show the parent alone. Some of the results follow. Repeats are few or missing, and single values can be far off.
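Also: primary screen of an FDA-approved drug library in HeLa reporter cells in 96-well format, CellMask signal normalized to DMSO-treated wells set as 1, under 0.5 deemed highly cytotoxic.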

In this experiment the test system is HeLa VPS33A reporter cells. Kind of experiment: relative cell viability (CellMask signal) vs DMSO (fraction of DMSO); HeLa model of a glycosaminoglycan (GAG) storage disease; KI is knock-in and KO knock-out; SDC1 is syndecan 1; higher = less cytotoxic. The note with it: 50 µM; 24 h.
The compound `CCc1cc2c(cc1CC)CC(NC[C@H](O)c1ccc(O)c3[nH]c(=O)ccc13)C2` [Indacaterol Maleate] yielded a relative cell viability of 0.00575. In turn, `COC(=O)C1=C(C)NC(C)=C(C(=O)OCC(C)C)C1c1ccccc1[N+](=O)[O-]` (stereo not given) [Nisoldipine] showed a relative cell viability of 0.186. `OC(CNCC(O)C1CCc2cc(F)ccc2O1)C1CCc2cc(F)ccc2O1` (stereo not given) [Nebivolol] yielded a relative cell viability of 0.0146. For the compound `CCOc1nc2cccc(C(=O)OC(C)OC(=O)OC3CCCCC3)c2n1Cc1ccc(-c2ccccc2-c2nn[nH]n2)cc1` (stereo not given) [Candesartan Cilexetil], the relative cell viability worked out at 0.0199. With `O=C(O[C@H]1CN2CCC1CC2)N1CCc2ccccc2[C@@H]1c1ccccc1` [Solifenacin succinate], the relative cell viability is 0.00588. In the case of `CO[C@H]1C[C@@H]2CC[C@@H](C)[C@@](O)(O2)C(=O)C(=O)N2CCCC[C@H]2C(=O)O[C@H]([C@H](C)C[C@@H]2CC[C@@H](OC(=O)C(C)(CO)CO)[C@H](OC)C2)CC(=O)[C@H](C)/C=C(\C)[C@@H](O)[C@@H](OC)C(=O)[C@H](C)C[C@H](C)/C=C/C=C/C=C/1C` [Temsirolimus], the relative cell viability stood at 0.00497. `CCCCc1oc2ccccc2c1C(=O)c1cc(I)c(OCCN(CC)CC)c(I)c1` [Amiodarone HCl]: the relative cell viability amounted to 0.0389. As to `COc1cc(NS(C)(=O)=O)ccc1Nc1c2ccccc2nc2ccccc12` [Amsacrine hydrochloride], the relative cell viability amounted to 0.00697. In turn, `COC(=O)Nc1nc2cc(C(=O)c3ccc(F)cc3)ccc2[nH]1` [Flubendazole] yielded a relative cell viability of 0.118. Regarding `COc1cc2c(Oc3ccc4[nH]c(C)cc4c3F)ncnc2cc1OCCCN1CCCC1` [Cediranib (AZD217)], the relative cell viability was 0.00517.
